{"source": "PubChem BioAssay AID588342", "about": "(National Center for Advancing Translational Sciences (NCATS), 2011)", "note": "Among all 360,000 compounds or so, about 25,000 (6.9%) were called active. The shares of active, inactive and inconclusive entries below differ from those in the screen. Calls follow the shape of the dose curve; as a rule, active = well fitted inhibition curve with a large enough effect; inconclusive = small, poorly fitted or top-dose-only effect; inactive = flat fitted curve, though single readings scatter. Potencies of inconclusive entries are doubtful fits and often do not repeat. Potency is read from the fitted curve at half-maximal effect; tags tell the direction and shape of the fitted curve."}
{"molecular_target": "Luciferin 4-monooxygenase (Photinus pyralis) (UniProt P08659)", "sequence (P08659 whole entry, looked up)": "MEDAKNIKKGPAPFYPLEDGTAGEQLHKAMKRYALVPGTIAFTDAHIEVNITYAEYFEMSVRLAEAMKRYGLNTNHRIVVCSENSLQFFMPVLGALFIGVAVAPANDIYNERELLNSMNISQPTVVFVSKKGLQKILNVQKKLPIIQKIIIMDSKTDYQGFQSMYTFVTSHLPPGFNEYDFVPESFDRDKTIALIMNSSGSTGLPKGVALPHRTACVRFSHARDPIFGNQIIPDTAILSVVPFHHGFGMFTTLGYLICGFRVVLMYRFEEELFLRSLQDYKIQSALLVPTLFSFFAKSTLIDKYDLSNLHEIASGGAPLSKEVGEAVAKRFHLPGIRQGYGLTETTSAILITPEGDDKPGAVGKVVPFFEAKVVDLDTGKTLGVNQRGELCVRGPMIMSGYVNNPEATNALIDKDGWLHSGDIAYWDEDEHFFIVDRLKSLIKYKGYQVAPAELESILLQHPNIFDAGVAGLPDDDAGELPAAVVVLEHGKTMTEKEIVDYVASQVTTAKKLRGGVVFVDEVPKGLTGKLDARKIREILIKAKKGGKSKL", "experiment": "qHTS profiling assay for firefly luciferase inhibitor/activator using purifed enzyme and Km concentrations of substrates (counterscreen for miR-21 project); also: nearly all actives have a fitted effect of over 55% in size;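 as to activity change, negative = inhibition: plate controls were vehicle for no effect and reference inhibitor for full effect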", "settings": "purified FLuc, luminescence inhibition; series mostly up to 57.5 µM; activity change, negative = inhibition: at the top concentration", "how_it_was_run": "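Biochemical qHTS of compounds, final roughly 60 µM downward over six points, against 10 nM purified firefly luciferase using Km concentrations of substrates (10 uM D-luciferin, 10 uM ATP) in Tris acetate pH 7.5 buffer; luminescence output.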"}
{"smiles": "CC1=NN(c2ccccc2)C(=O)/C1=C\\c1c(C)[nH]n(-c2ccccc2)c1=O", "Potency": "inconclusive: 19 µM [inhibitor, partial curve, poor fit]"}
{"smiles": "Oc1cc(-c2ccncc2)cc2cccnc12", "Potency": "inconclusive: 15.1 µM [inhibitor, partial curve, poor fit]"}
{"smiles": "CN1C(=S)SC(C)(C)C1N(O)C(=O)Nc1ccc(Cl)cc1", "note": "(stereo not drawn)", "Potency": "inconclusive: 26.9 µM [inhibitor, single point]"}
{"smiles": "COc1cc(/C=N/OCC(=O)NC2CCCCC2)ccc1OCc1ccccc1", "Potency": "inconclusive: 16.9 µM [inhibitor, partial curve]"}
{"smiles": "CCC(C(=O)NC1CCCCC1)n1c(SCc2cccc(C)c2)nc2ccncc21", "note": "(stereo not drawn)", "Potency": "inconclusive: 26.9 µM [inhibitor, single point]"}
{"smiles": "COc1ccc(-c2cc(=Nc3ccc(C(=O)O)cc3)c3cc(C)ccc3o2)cc1", "Potency": "active: 9.53 µM"}
{"smiles": "N#Cc1ccccc1CSc1nnc2ccc3ccccc3n12", "Potency": "inconclusive: 21.3 µM [inhibitor, partial curve, poor fit]"}
{"smiles": "Cc1cc2nc(-c3ccccc3)cc(=O)n2[nH]1", "Potency": "active: 6.75 µM"}
{"smiles": "Cc1cc(O)ccc1N/C=C/c1onc(C)c1[N+](=O)[O-]", "Potency": "inconclusive: 0.601 µM [inhibitor, full curve, poor fit]"}
{"smiles": "Cc1coc2cc3oc(=O)c(CCC(=O)NCc4ccccc4Cl)c(C)c3cc12", "activity change, negative = inhibition": "inactive: -8.25%"}
{"smiles": "Nc1ccc(Oc2ccc3c(c2)C(=O)NC3=O)cc1", "Potency": "inconclusive: 33.8 µM [inhibitor, partial curve, poor fit]"}
{"smiles": "COc1ccc(NC(=O)CN(C)C2CCCCC2)c([N+](=O)[O-])c1", "activity change, negative = inhibition": "inactive: -5.15%"}
{"smiles": "Cc1ccc(-c2csc(NC(=O)c3ccc([N+](=O)[O-])o3)n2)cc1", "Potency": "inconclusive: 23.9 µM [inhibitor, partial curve]"}
{"smiles": "Cc1ccccc1-c1nnn(Cc2ccc(-c3nn[nH]n3)cc2)n1", "Potency": "inconclusive: 23.9 µM [inhibitor, partial curve]"}
{"smiles": "CCn1ncc(Br)c1C(=O)Nc1ccc2c(c1)OCCO2", "Potency": "inconclusive: 21.3 µM [inhibitor, single point]"}
{"smiles": "COC(=O)CN1C(=O)[C@H]2[C@@H](c3ccc(C)o3)N3C(=O)CN(CC4CC4)C(=O)[C@@]3(C)[C@H]2C1=O", "activity change, negative = inhibition": "inactive: 4.9%"}
{"smiles": "CCn1c(SCC(=O)Nc2ccc(N3CCOCC3)cc2)nnc1C1CC1", "Potency": "inconclusive: 30.1 µM [inhibitor, single point]"}
{"smiles": "C(=N\\NC1=Nc2cccc3cccc1c23)/c1ccccc1", "Potency": "active: 1.69 µM"}
{"smiles": "O=C1NC(=Nc2ccccc2)S/C1=C\\C=C\\c1ccco1", "Potency": "active: 19 µM"}
{"smiles": "Cc1ccc(C)c(-n2nnc(-c3nc(-c4ccccc4C)no3)c2C)c1", "Potency": "inconclusive: 10.7 µM [inhibitor, partial curve]"}
{"smiles": "O=C(CCNS(=O)(=O)c1cccs1)N1CCCCCC1", "Potency": "inconclusive: 23.9 µM [inhibitor, single point]"}
{"smiles": "N/C(=C/C(=O)c1ccccc1O)C(F)(F)F", "Potency": "inconclusive: 37.9 µM [inhibitor, partial curve, poor fit]"}
{"smiles": "CC(C)N1C(=O)CCC1C(=O)NCCc1ccc(Cl)cc1", "note": "(stereo not drawn)", "activity change, negative = inhibition": "inactive: 2.13%"}
{"smiles": "O=C(COC(=O)C1CC1)Nc1ccc(Cl)cc1Cl", "Potency": "inconclusive: 13.5 µM [inhibitor, partial curve, poor fit]"}
{"smiles": "CCS(=O)(=O)N1CCC(C(=O)Nc2ccccc2OC)CC1", "activity change, negative = inhibition": "inactive: 0.97%"}
{"smiles": "COC(=O)c1cc2c(s1)-c1ccc(OC)cc1CC2", "Potency": "active: 9.53 µM"}
{"smiles": "O=C(N/N=C/C(Br)=C/c1ccccc1)c1ccccc1[N+](=O)[O-]", "Potency": "inconclusive: 37.9 µM [inhibitor, partial curve, poor fit]"}
{"smiles": "Cc1cc(C(=O)COC(=O)c2ccc3c(c2)NC(=O)CS3)c(C)n1CC1CCCO1", "note": "(stereo not drawn)", "Potency": "active: 15.1 µM"}
{"smiles": "Cc1cccc(NC(=O)c2c(O)c3ccccc3n(C)c2=O)c1", "Potency": "inconclusive: 1.51 µM [inhibitor, full curve]"}
{"smiles": "Cn1c(SCc2ccc(F)cc2)nnc1-c1cnccn1", "activity change, negative = inhibition": "inactive: -18%"}
{"smiles": "O=C(COC(=O)c1ccc(Br)o1)NCC(=O)Nc1ccc(F)cc1", "activity change, negative = inhibition": "inactive: -1.56%"}
{"smiles": "O=C(N/N=C/c1cccnc1)c1ccc(O)cc1", "Potency": "inconclusive: 21.3 µM [inhibitor, single point]"}
{"smiles": "O=S(=O)(Nc1ccc(F)c(Cl)c1)c1ccc(Br)s1", "Potency": "inconclusive: 12 µM [inhibitor, partial curve]"}
{"smiles": "COc1ccc(/C=C/c2ccc3cccc(O)c3n2)c(OC)c1OC", "Potency": "active: 4.78 µM"}
{"smiles": "O=C(Nc1ccc2c(c1)OCO2)c1cc(C2CC2)on1", "Potency": "active: 4.26 µM"}
{"smiles": "COC(=O)c1sccc1NC(=O)COc1ccc(C)cc1", "Potency": "inconclusive: 37.9 µM [inhibitor, single point]"}
{"smiles": "O=S(=O)(c1ccc(-c2ccon2)s1)N1CCN(c2ccncc2)CC1", "activity change, negative = inhibition": "inactive: 0.15%"}
{"smiles": "Cc1c(-c2cc(C(=O)O)no2)cnn1C", "Potency": "inconclusive: 37.9 µM [inhibitor, single point]"}
{"smiles": "Cc1ccc(NC(=O)c2[nH]cnc2C(=O)NN)cc1", "Potency": "inconclusive: 26.9 µM [inhibitor, partial curve, poor fit]"}
{"smiles": "c1ccc2c(c1)Oc1cccc3cccc-2c13", "Potency": "inconclusive: 13.5 µM [inhibitor, partial curve]"}
{"smiles": "Brc1cccc(CSc2nnc(-c3ccncc3)o2)c1", "activity change, negative = inhibition": "inactive: 4.32%"}
{"smiles": "O=C(c1ccc2c(=O)n3c(nc2c1)CCCCC3)N1CCCCC1", "activity change, negative = inhibition": "inactive: 1.68%"}
{"smiles": "Cc1cc(/C=N/n2c(COc3ccccc3)nc3ccccc3c2=O)c(O)c([N+](=O)[O-])c1", "Potency": "inconclusive: 23.9 µM [inhibitor, single point]"}
{"smiles": "O=C(c1ccc(F)c(S(=O)(=O)N2CCOCC2)c1)N1CCc2ccccc21", "activity change, negative = inhibition": "inactive: 2.72%"}
{"smiles": "CCN(CC)c1ccc2c(O)cc(=O)oc2c1", "Potency": "active: 12 µM"}
{"smiles": "Nc1nc(-c2ccc(Oc3ccccc3)cc2)c(CC(=O)O)s1", "Potency": "inconclusive: 21.3 µM [inhibitor, partial curve, poor fit]"}
{"smiles": "Cc1ccc2cc(/C=N/NC(=O)c3ccc(F)cc3)c(Cl)nc2c1", "activity change, negative = inhibition": "inactive: -1.96%"}
{"smiles": "Cc1ccc(C)c(N2CCN(S(=O)(=O)c3ccc(-c4coc(C)n4)cc3)CC2)c1", "activity change, negative = inhibition": "inactive: 0.0235%"}
